Consider 18 molecules from the supplement of paper PMC10369915.

The other results are listed elsewhere or left out. Rule as the data show it: active = 3.2 or more and inactive = the rest. The signal is at background level for most entries.
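Also: displayed peptides selected on beads carrying the immobilized SH2 domain, with library peptides lacking any tyrosine serving as negative controls.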

The first experiment deals with SHP2 C-SH2 domain E139D. As to the kind of experiment: enrichment score (SH2-bound / input frequency) (ratio); bacterial display of known human phosphotyrosine sites (pTyr-Var adds point mutants) read by sequencing; higher = stronger binding; tyrosines were phosphorylated by kinases first. Particulars: peptide library: pTyr-Var.
Take FLQEIYNSNNQ [FGG_Y140_YF]: the enrichment score is inactive: 1.36.

For the molecule TYACSYTPVKA [FLNB_Y708], the enrichment score is inactive: 1.11.

On to CQNRFYDAKVR [FKBP6_Y188_R183C], for which the enrichment score is inactive: 0.931.

For PEADKYCLTYA [FGG_Y300_R301C], the enrichment score was inactive: 0.993.

Take VEDQFYCVDCF [FHL1_Y208_YF]: the enrichment score is active: 5.63.

Consider VVEVTYDDVPI [FLNB_Y1308], for which the enrichment score is inactive: 0.822.

With SQDSAYHSGIQ [FLG_Y3940], the enrichment score was inactive: 0.377.

As for AVEDQYYRVDC [FHL1_Y207_C209R], the enrichment score was inactive: 0.862.

For the molecule RMDGKYACSYT [FLNB_Y704_T703K], the enrichment score is inactive: 0.701.

For YQGGTYSKACT [FGG_Y380_S384C], the enrichment score is inactive: 0.6.

In the case of KGEDFYCVTCH [FHL1_Y149], the enrichment score is inactive: 2.91.

Regarding VEDQYYRVDCY [FHL1_Y208_C209R], the enrichment score is inactive: 0.899.

With KYACSYTPVKA [FLNB_Y708_T703K], the enrichment score is inactive: 1.2.

For the molecule RQNRFYDAKVR [FKBP6_Y188], the enrichment score is inactive: 0.481.

YLQEIYNSNNQ [FGG_Y140]: the enrichment score is inactive: 0.913.

For GPGLVYGVANK [FLNB_Y1833], the enrichment score is inactive: 0.84.

As for SPLEVYVDKSQ [FLNA_Y373_F370L], the enrichment score was inactive: 0.924.

For the molecule FLQEIHNSNNQ [FGG_Y140_Y140H_YF], the enrichment score is inactive: 1.12.

A further experiment addresses SHP2 C-SH2 domain wild-type. The experiment is described as above. Particulars: peptide library: pTyr-Var.
With FLQEIYNSNNQ [FGG_Y140_YF], the enrichment score is inactive: 1.14.

On to TYACSYTPVKA [FLNB_Y708], for which the enrichment score was inactive: 1.85.

With CQNRFYDAKVR [FKBP6_Y188_R183C], the enrichment score was inactive: 0.99.

Take PEADKYCLTYA [FGG_Y300_R301C]: the enrichment score is inactive: 1.1.

Regarding VEDQFYCVDCF [FHL1_Y208_YF], the enrichment score was active: 4.27.

VVEVTYDDVPI [FLNB_Y1308]: the enrichment score is inactive: 0.726.

With SQDSAYHSGIQ [FLG_Y3940], the enrichment score was inactive: 0.446.

On to AVEDQYYRVDC [FHL1_Y207_C209R], for which the enrichment score is inactive: 0.748.

Consider RMDGKYACSYT [FLNB_Y704_T703K], for which the enrichment score is inactive: 0.864.

For the molecule YQGGTYSKACT [FGG_Y380_S384C], the enrichment score was inactive: 0.685.

For KGEDFYCVTCH [FHL1_Y149], the enrichment score is inactive: 3.14.

With VEDQYYRVDCY [FHL1_Y208_C209R], the enrichment score was inactive: 1.15.

With KYACSYTPVKA [FLNB_Y708_T703K], the enrichment score is inactive: 2.11.

Turning to RQNRFYDAKVR [FKBP6_Y188], the enrichment score is inactive: 0.458.

Turning to YLQEIYNSNNQ [FGG_Y140], the enrichment score is inactive: 1.27.

In the case of GPGLVYGVANK [FLNB_Y1833], the enrichment score was inactive: 1.17.

Take SPLEVYVDKSQ [FLNA_Y373_F370L]: the enrichment score was inactive: 0.998.

On to FLQEIHNSNNQ [FGG_Y140_Y140H_YF], for which the enrichment score was inactive: 1.02.

The next experiment concerns the target SHP2 N-SH2 domain L43F. The experiment is described as above. Particulars: peptide library: pTyr-Var.
Take FLQEIYNSNNQ [FGG_Y140_YF]: the enrichment score is inactive: 1.02.

With TYACSYTPVKA [FLNB_Y708], the enrichment score was inactive: 1.11.

Regarding CQNRFYDAKVR [FKBP6_Y188_R183C], the enrichment score is inactive: 0.872.

On to PEADKYCLTYA [FGG_Y300_R301C], for which the enrichment score was inactive: 1.01.

Regarding VEDQFYCVDCF [FHL1_Y208_YF], the enrichment score was active: 4.89.

Take VVEVTYDDVPI [FLNB_Y1308]: the enrichment score was inactive: 0.765.

Regarding SQDSAYHSGIQ [FLG_Y3940], the enrichment score is inactive: 0.433.

With AVEDQYYRVDC [FHL1_Y207_C209R], the enrichment score is inactive: 0.591.

For RMDGKYACSYT [FLNB_Y704_T703K], the enrichment score was inactive: 0.693.

Turning to YQGGTYSKACT [FGG_Y380_S384C], the enrichment score is inactive: 0.571.

In the case of KGEDFYCVTCH [FHL1_Y149], the enrichment score is active: 3.21.

Turning to VEDQYYRVDCY [FHL1_Y208_C209R], the enrichment score was inactive: 1.05.

With KYACSYTPVKA [FLNB_Y708_T703K], the enrichment score is inactive: 1.39.

RQNRFYDAKVR [FKBP6_Y188]: the enrichment score is inactive: 0.419.

On to YLQEIYNSNNQ [FGG_Y140], for which the enrichment score is inactive: 1.05.

Consider GPGLVYGVANK [FLNB_Y1833], for which the enrichment score was inactive: 0.923.

With SPLEVYVDKSQ [FLNA_Y373_F370L], the enrichment score is inactive: 1.

As for FLQEIHNSNNQ [FGG_Y140_Y140H_YF], the enrichment score is inactive: 1.01.

The target of another experiment is SHP2 N-SH2 domain T42A. The experiment is described as above. Particulars: peptide library: pTyr-Var.
As for FLQEIYNSNNQ [FGG_Y140_YF], the enrichment score is inactive: 1.04.

Turning to TYACSYTPVKA [FLNB_Y708], the enrichment score is active: 3.27.

For the molecule CQNRFYDAKVR [FKBP6_Y188_R183C], the enrichment score is inactive: 0.835.

Regarding PEADKYCLTYA [FGG_Y300_R301C], the enrichment score is inactive: 0.954.

Take VEDQFYCVDCF [FHL1_Y208_YF]: the enrichment score is active: 4.41.

For the molecule VVEVTYDDVPI [FLNB_Y1308], the enrichment score was inactive: 0.68.

In the case of SQDSAYHSGIQ [FLG_Y3940], the enrichment score was inactive: 0.472.

With AVEDQYYRVDC [FHL1_Y207_C209R], the enrichment score was inactive: 0.87.

Turning to RMDGKYACSYT [FLNB_Y704_T703K], the enrichment score was inactive: 0.737.

For YQGGTYSKACT [FGG_Y380_S384C], the enrichment score was inactive: 0.726.

As for KGEDFYCVTCH [FHL1_Y149], the enrichment score was inactive: 2.02.

As for VEDQYYRVDCY [FHL1_Y208_C209R], the enrichment score is inactive: 0.944.

Take KYACSYTPVKA [FLNB_Y708_T703K]: the enrichment score was inactive: 3.06.

For RQNRFYDAKVR [FKBP6_Y188], the enrichment score was inactive: 0.348.

As to YLQEIYNSNNQ [FGG_Y140], the enrichment score was inactive: 0.991.

Consider GPGLVYGVANK [FLNB_Y1833], for which the enrichment score is inactive: 0.723.

As for SPLEVYVDKSQ [FLNA_Y373_F370L], the enrichment score is inactive: 0.742.

On to FLQEIHNSNNQ [FGG_Y140_Y140H_YF], for which the enrichment score was inactive: 0.931.

For the next experiment, the target named is SHP2 N-SH2 domain T52S. Described as above. Particulars: peptide library: pTyr-Var.
Turning to FLQEIYNSNNQ [FGG_Y140_YF], the enrichment score is inactive: 1.51.

For the molecule TYACSYTPVKA [FLNB_Y708], the enrichment score is inactive: 1.21.

Turning to CQNRFYDAKVR [FKBP6_Y188_R183C], the enrichment score was inactive: 0.998.

With PEADKYCLTYA [FGG_Y300_R301C], the enrichment score was inactive: 0.809.

In the case of VEDQFYCVDCF [FHL1_Y208_YF], the enrichment score was active: 4.68.

As for VVEVTYDDVPI [FLNB_Y1308], the enrichment score is inactive: 0.86.

On to SQDSAYHSGIQ [FLG_Y3940], for which the enrichment score is inactive: 0.544.

Take AVEDQYYRVDC [FHL1_Y207_C209R]: the enrichment score was inactive: 0.663.

Regarding RMDGKYACSYT [FLNB_Y704_T703K], the enrichment score was inactive: 0.634.

In the case of YQGGTYSKACT [FGG_Y380_S384C], the enrichment score was inactive: 0.484.

Consider KGEDFYCVTCH [FHL1_Y149], for which the enrichment score was inactive: 2.85.

Take VEDQYYRVDCY [FHL1_Y208_C209R]: the enrichment score is inactive: 0.93.

Regarding KYACSYTPVKA [FLNB_Y708_T703K], the enrichment score is inactive: 1.75.

For RQNRFYDAKVR [FKBP6_Y188], the enrichment score is inactive: 0.489.

YLQEIYNSNNQ [FGG_Y140]: the enrichment score was inactive: 1.17.

As to GPGLVYGVANK [FLNB_Y1833], the enrichment score is inactive: 1.01.

Regarding SPLEVYVDKSQ [FLNA_Y373_F370L], the enrichment score is inactive: 0.95.

Regarding FLQEIHNSNNQ [FGG_Y140_Y140H_YF], the enrichment score was inactive: 1.19.

A further experiment concerns the target SHP2 N-SH2 domain wild-type. Described as above. Particulars: peptide library: pTyr-Var.
Turning to FLQEIYNSNNQ [FGG_Y140_YF], the enrichment score is inactive: 1.44.

For TYACSYTPVKA [FLNB_Y708], the enrichment score was inactive: 0.76.

Consider CQNRFYDAKVR [FKBP6_Y188_R183C], for which the enrichment score was inactive: 1.01.

Regarding PEADKYCLTYA [FGG_Y300_R301C], the enrichment score was inactive: 1.38.

For the molecule VEDQFYCVDCF [FHL1_Y208_YF], the enrichment score is active: 4.68.

As for VVEVTYDDVPI [FLNB_Y1308], the enrichment score was inactive: 1.21.

SQDSAYHSGIQ [FLG_Y3940]: the enrichment score was inactive: 0.508.

As for AVEDQYYRVDC [FHL1_Y207_C209R], the enrichment score was inactive: 0.874.

Turning to RMDGKYACSYT [FLNB_Y704_T703K], the enrichment score is inactive: 1.03.

In the case of YQGGTYSKACT [FGG_Y380_S384C], the enrichment score was inactive: 0.534.

On to KGEDFYCVTCH [FHL1_Y149], for which the enrichment score is inactive: 2.85.

For VEDQYYRVDCY [FHL1_Y208_C209R], the enrichment score was inactive: 1.08.

Take KYACSYTPVKA [FLNB_Y708_T703K]: the enrichment score is inactive: 1.2.

As to RQNRFYDAKVR [FKBP6_Y188], the enrichment score was inactive: 0.517.

On to YLQEIYNSNNQ [FGG_Y140], for which the enrichment score was inactive: 1.28.

As for GPGLVYGVANK [FLNB_Y1833], the enrichment score was inactive: 1.15.

Consider SPLEVYVDKSQ [FLNA_Y373_F370L], for which the enrichment score is inactive: 0.954.

With FLQEIHNSNNQ [FGG_Y140_Y140H_YF], the enrichment score is inactive: 0.844.
